According to PMC9783754:
Results are given in words; binding and its absence hold for the method and conditions named.

Sequences of proteins named here, by UniProt entry; tags and fusion partners are left off. A change or cut given only in a name is not applied to a line headed by its entry. A line that says so, or that is headed by a name, gives the form on record, which may keep a tag or linker.
Recombinant human sTNF (soluble form of tumor necrosis factor) (P01375, form named): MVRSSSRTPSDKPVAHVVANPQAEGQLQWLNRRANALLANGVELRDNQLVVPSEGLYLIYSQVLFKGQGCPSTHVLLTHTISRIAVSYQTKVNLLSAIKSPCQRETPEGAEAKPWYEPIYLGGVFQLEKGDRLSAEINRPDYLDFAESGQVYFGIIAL
UniProt P26447: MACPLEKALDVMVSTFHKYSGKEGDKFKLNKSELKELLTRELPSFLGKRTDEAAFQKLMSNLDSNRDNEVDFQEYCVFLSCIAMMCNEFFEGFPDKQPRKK
UniProt P60903: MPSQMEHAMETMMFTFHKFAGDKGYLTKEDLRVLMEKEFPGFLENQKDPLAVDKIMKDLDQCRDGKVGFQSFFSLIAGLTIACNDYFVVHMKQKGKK
UniProt P29034: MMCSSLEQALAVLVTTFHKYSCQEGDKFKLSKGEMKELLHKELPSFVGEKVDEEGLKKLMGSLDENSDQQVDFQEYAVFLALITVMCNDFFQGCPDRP

Molecular target: Recombinant human sTNF (soluble form of tumor necrosis factor) (human) (UniProt P01375)
Test: SPR; ligand (50 μg/mL sTNF or TNF-β) immobilised on a ProteOn GLH chip by amine coupling; chip flushed with running buffer for two days and several times with 10 mM glycine pH 3.3 to dissociate sTNF multimers (monomeric sTNF); Ca2+-loaded S100 protein as analyte, 10 nM–2 µM; 25 °C; 10 mM HEPES, 150 mM NaCl, 1 mM CaCl2, 0.05% TWEEN 20, pH 7.4; heterogeneous ligand model; both purified

| Substance | binding |
| --- | --- |
| Recombinant human S100A4 (from UniProt P26447 1-101) | no binding (tested: up to 2 µM; Kd exceed 10^−4 M) |
| Recombinant human S100A10 (from UniProt P60903 1-97) | no binding (tested: up to 2 µM; Kd exceed 10^−4 M) |
| Recombinant human S100A2 (from UniProt P29034 1-98) | no binding (tested: up to 2 µM; Kd exceed 10^−4 M) |
